Measurements as given in patent publication US7358278B2, “Cellular phosphorylation potential enhancing compositions preparation and use thereof” (priority 1994, dated 2008).

System: GT1-7 cells
Experiment: H2O2 (oxidative stress) toxicity, neuroprotection, MTT dye reduction assay
Settings: 500 micromolar H2O2, FIG. 4A

| Structure (SMILES) | protection against oxidative stress (in words) |
| --- | --- |
| CN(CC(=O)O)C(=N)N [Creatine, creatine] | nearly complete dose dependent protection |
| NC(=O)c1cccnc1 [Nicotinamide, nicotinamide] | nearly complete dose dependent protection |
